# Experimental data: ChEMBL document CHEMBL5606460, “ASAP - DENV-2 NS2B-NS3 protease fluorescence single point” (2024)
# Among all 2,000 compounds or so, about 110 (5.5%) showed an effect of 50% or more. Some of the results follow.
# Target: Genome polyprotein (dengue virus type 2) (UniProt P29990)
# [1] = Thailand/16681/1984, Concentration 25.0 uM, Number of replicates 1.0
structure (smiles),measurement,setting,value
Cc1cc(CO)c2cccc(C[C@H](NC(=O)c3cc(C(F)F)nn3C)C(=O)O)c2n1,inhibition,"Thailand/16681/1984, Concentration 49.95 uM, Number of replicates 2.0, Standard deviation 1.4383595761786832 %",1.98%
same,inhibition,"Thailand/16681/1984, Concentration 99.9 uM, Number of replicates 2.0, Standard deviation 0.48778570830386186 %",5.89%
COc1ccccc1[C@H](C)NC(=O)C1CCN(c2ccc(C=O)cc2)CC1,inhibition,[1],12.6%
CC(C)(CO)NC(=O)c1cc(Cl)cc(NC(=O)c2ccc(O)nc2)c1,inhibition,"Thailand/16681/1984, Concentration 49.5 uM, Number of replicates 2.0, Standard deviation 1.6513087199160978 %",-2.63%
same,inhibition,"Thailand/16681/1984, Concentration 99.01 uM, Number of replicates 2.0, Standard deviation 2.6812944153496905 %",-0.674%
same,inhibition,"Thailand/16681/1984, Concentration 198.0 uM, Number of replicates 2.0, Standard deviation 14.419090783931495 %",10.7%
CNC(=O)c1cc(Cl)ccc1NS(=O)(=O)Cc1cccnc1,inhibition,"Thailand/16681/1984, Concentration 49.5 uM, Number of replicates 2.0, Standard deviation 1.2365897154213892 %",-3.14%
same,inhibition,"Thailand/16681/1984, Concentration 99.01 uM, Number of replicates 2.0, Standard deviation 0.7189918552918315 %",-5.5%
CN(Cc1cccc([N+](=O)[O-])c1)C(=O)C1CCN(c2ccc(C=O)cc2)CC1,inhibition,[1],14.4%
CNC(=O)c1cc(Cl)ncc1NS(=O)(=O)c1ccc(Oc2ccccc2Cl)cc1,inhibition,"Thailand/16681/1984, Concentration 49.5 uM, Number of replicates 2.0, Standard deviation 0.003826975991637689 %",-0.629%
same,inhibition,"Thailand/16681/1984, Concentration 99.01 uM, Number of replicates 2.0, Standard deviation 0.08610681229787821 %",-0.288%
same,inhibition,"Thailand/16681/1984, Concentration 198.0 uM, Number of replicates 2.0, Standard deviation 0.5032468582115982 %",12.6%
C[C@H]1CCCCN1CCCNC(=O)C1CCN(c2ccc(C=O)cc2)CC1,inhibition,[1],10.3%
Cn1nc(-c2ccccc2)cc1CN1CCC(c2c[nH]c3cccnc23)CC1,inhibition,"Thailand/16681/1984, Concentration 49.5 uM, Number of replicates 2.0, Standard deviation 2.7674524360685093 %",-4.34%
same,inhibition,"Thailand/16681/1984, Concentration 99.01 uM, Number of replicates 2.0, Standard deviation 2.3595903445048867 %",-0.982%
same,inhibition,"Thailand/16681/1984, Concentration 198.0 uM, Number of replicates 2.0, Standard deviation 2.863984071148027 %",1.79%
NS(=O)(=O)c1cscc1CNCc1nnc2ccccn12,inhibition,"Thailand/16681/1984, Concentration 49.5 uM, Number of replicates 2.0, Standard deviation 0.7378652140550099 %",-5.3%
same,inhibition,"Thailand/16681/1984, Concentration 99.01 uM, Number of replicates 2.0, Standard deviation 2.175818747495139 %",-3.74%
same,inhibition,"Thailand/16681/1984, Concentration 198.0 uM, Number of replicates 2.0, Standard deviation 3.281635221356926 %",-3.71%
Cc1cc(CO)c2cccc(CC(=O)N3CC4(CCCOC4)C3)c2n1,inhibition,"Thailand/16681/1984, Concentration 49.95 uM, Number of replicates 2.0, Standard deviation 0.772673116128399 %",-6.59%
same,inhibition,"Thailand/16681/1984, Concentration 99.9 uM, Number of replicates 2.0, Standard deviation 1.1105448445025274 %",-6.27%
CCOc1ccccc1CNC(=O)C1CCN(c2ccc(C=O)cc2)CC1,inhibition,[1],12.1%
Cn1cc(NC(=O)c2ccccc2C(F)(F)F)c(-c2cccc(CO)c2)n1,inhibition,"Thailand/16681/1984, Concentration 49.5 uM, Number of replicates 2.0, Standard deviation 0.6307028056186048 %",-4.03%
same,inhibition,"Thailand/16681/1984, Concentration 99.01 uM, Number of replicates 2.0, Standard deviation 3.6654170060517894 %",-4.22%
same,inhibition,"Thailand/16681/1984, Concentration 198.0 uM, Number of replicates 2.0, Standard deviation 3.1544802024482874 %",-2.91%
COc1cccc([C@H](C)NC(=O)C2CCN(c3ccc(C=O)cc3)CC2)c1,inhibition,[1],12.7%
C[C@@H](CNc1cc(Cl)cc(C(=O)NC(C)(C)CO)c1)c1ccc(F)cc1,inhibition,"Thailand/16681/1984, Concentration 49.5 uM, Number of replicates 2.0, Standard deviation 1.7964155145983758 %",-4.87%
same,inhibition,"Thailand/16681/1984, Concentration 99.01 uM, Number of replicates 2.0, Standard deviation 2.367041527999976 %",-8.66%
O=Cc1ccc(N2CCC(C(=O)NCCc3ccc(OC(F)(F)F)cc3)CC2)cc1,inhibition,[1],14.5%
Cc1ncc(CO)c(CNC(=O)C2CCN(c3ccc(C=O)cc3)CC2)c1O,inhibition,[1],9.53%
O=Cc1ccc(N2CCC(C(=O)N3Cc4ccccc4C[C@@H]3CO)CC2)cc1,inhibition,[1],13.8%
Cc1cn2nnc(C(=O)N3CCC[C@H](c4nc(=O)[nH][nH]4)C3)c2c(=O)[nH]1,inhibition,"Thailand/16681/1984, Concentration 49.5 uM, Number of replicates 2.0, Standard deviation 1.1306810071407891 %",-1.83%
same,inhibition,"Thailand/16681/1984, Concentration 99.01 uM, Number of replicates 2.0, Standard deviation 1.1436614778388714 %",-1.38%
same,inhibition,"Thailand/16681/1984, Concentration 198.0 uM, Number of replicates 2.0, Standard deviation 0.31245549284811885 %",-1.83%
CNC(=O)C[C@H]1CCCN1S(=O)(=O)c1ccc(Oc2ccccc2Cl)cc1,inhibition,"Thailand/16681/1984, Concentration 49.5 uM, Number of replicates 2.0, Standard deviation 0.32757728686835763 %",-0.145%
same,inhibition,"Thailand/16681/1984, Concentration 99.01 uM, Number of replicates 2.0, Standard deviation 1.5700018436077314 %",1.46%
same,inhibition,"Thailand/16681/1984, Concentration 198.0 uM, Number of replicates 2.0, Standard deviation 0.26515981673573996 %",3.55%
N[C@H]1CCN(c2cccc(CNC(=O)c3ccc4[nH]c(=O)[nH]c4c3F)n2)C1,inhibition,"Thailand/16681/1984, Concentration 49.5 uM, Number of replicates 2.0, Standard deviation 0.5004190364841841 %",0.031%
same,inhibition,"Thailand/16681/1984, Concentration 99.01 uM, Number of replicates 2.0, Standard deviation 0.5874940461860545 %",0.034%
same,inhibition,"Thailand/16681/1984, Concentration 198.0 uM, Number of replicates 2.0, Standard deviation 2.120224019736177 %",3.2%
CN(C)c1ccc(/C=C/C(=O)C(=O)N2CCOCC2)cc1,inhibition,"Thailand/16681/1984, Concentration 49.5 uM, Number of replicates 2.0, Standard deviation 1.4993650320557768 %",37.9%
same,inhibition,"Thailand/16681/1984, Concentration 99.01 uM, Number of replicates 2.0, Standard deviation 1.3662996762867583 %",59.5%
same,inhibition,"Thailand/16681/1984, Concentration 198.0 uM, Number of replicates 2.0, Standard deviation 0.7538742729933879 %",78.8%
